Assay results from PMC3160840.
Results are given in words; binding and its absence hold for the method and conditions named. Binding seen in cells or lysates may run through a third protein. Some results given as binding are weak or reduced against the parent protein; the word gives no strength.

Sequences of proteins named here, by UniProt entry; tags and fusion partners are left off.
UniProt P03427: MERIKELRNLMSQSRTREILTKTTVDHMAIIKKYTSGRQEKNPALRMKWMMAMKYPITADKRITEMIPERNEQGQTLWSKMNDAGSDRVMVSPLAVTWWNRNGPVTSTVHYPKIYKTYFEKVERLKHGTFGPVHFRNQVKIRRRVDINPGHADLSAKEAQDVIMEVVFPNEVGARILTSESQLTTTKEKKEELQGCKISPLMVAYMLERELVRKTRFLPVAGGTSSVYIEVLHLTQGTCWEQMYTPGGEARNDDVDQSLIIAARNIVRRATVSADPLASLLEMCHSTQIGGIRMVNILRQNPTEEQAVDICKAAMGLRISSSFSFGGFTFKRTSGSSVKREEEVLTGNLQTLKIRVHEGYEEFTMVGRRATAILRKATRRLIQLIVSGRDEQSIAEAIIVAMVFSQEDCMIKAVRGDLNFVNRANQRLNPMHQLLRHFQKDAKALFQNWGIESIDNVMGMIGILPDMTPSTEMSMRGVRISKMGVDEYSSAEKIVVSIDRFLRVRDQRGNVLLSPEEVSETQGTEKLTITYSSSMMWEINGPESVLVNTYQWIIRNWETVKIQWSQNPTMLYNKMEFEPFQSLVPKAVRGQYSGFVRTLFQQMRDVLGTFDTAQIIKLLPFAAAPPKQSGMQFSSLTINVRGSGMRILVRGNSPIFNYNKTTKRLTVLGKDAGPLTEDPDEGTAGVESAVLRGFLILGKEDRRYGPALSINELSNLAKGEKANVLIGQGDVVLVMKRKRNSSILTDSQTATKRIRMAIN
UniProt P03430: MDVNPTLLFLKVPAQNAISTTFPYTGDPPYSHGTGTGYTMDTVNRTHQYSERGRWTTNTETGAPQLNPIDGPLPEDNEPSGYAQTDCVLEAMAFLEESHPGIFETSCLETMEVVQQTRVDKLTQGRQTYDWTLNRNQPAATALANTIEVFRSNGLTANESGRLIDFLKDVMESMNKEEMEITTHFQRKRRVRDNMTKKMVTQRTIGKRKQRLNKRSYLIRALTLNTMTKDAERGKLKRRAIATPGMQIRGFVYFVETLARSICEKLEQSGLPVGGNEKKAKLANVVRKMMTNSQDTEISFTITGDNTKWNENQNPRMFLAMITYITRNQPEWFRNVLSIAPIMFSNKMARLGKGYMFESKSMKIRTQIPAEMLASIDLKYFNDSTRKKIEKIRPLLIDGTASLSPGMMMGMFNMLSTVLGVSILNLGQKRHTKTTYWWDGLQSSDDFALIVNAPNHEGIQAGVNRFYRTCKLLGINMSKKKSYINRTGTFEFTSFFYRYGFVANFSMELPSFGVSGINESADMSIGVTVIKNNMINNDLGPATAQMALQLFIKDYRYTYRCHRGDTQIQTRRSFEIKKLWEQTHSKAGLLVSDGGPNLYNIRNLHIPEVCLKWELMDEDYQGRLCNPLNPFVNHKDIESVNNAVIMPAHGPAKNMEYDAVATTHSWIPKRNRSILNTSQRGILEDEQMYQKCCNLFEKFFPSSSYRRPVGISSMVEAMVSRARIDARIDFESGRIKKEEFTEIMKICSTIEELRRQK
UniProt P15682: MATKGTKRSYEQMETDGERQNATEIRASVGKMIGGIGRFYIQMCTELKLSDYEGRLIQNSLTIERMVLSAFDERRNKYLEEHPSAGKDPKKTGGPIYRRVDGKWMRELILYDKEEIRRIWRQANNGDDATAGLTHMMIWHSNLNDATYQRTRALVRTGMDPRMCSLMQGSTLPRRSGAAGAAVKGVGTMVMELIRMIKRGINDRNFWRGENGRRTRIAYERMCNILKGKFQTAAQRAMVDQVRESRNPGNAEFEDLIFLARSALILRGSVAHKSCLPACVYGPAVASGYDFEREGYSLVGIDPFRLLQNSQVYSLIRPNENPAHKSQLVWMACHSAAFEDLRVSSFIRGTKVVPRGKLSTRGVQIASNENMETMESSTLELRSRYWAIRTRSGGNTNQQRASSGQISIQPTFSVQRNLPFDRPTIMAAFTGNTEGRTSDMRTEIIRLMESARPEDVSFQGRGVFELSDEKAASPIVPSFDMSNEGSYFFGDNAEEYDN

Assays:
[1] = target: FLAG-tagged PB2 (influenza A virus A/WSN/33 (H1N1)) (UniProt P03427); experiment: co-IP
[2] = target: FLAG-tagged PB1 (influenza A virus A/WSN/33 (H1N1)) (UniProt P03430); experiment: co-IP

Substance: Myc-tagged NP (from UniProt P15682 1-498)
- binding [1]: binds
- binding [2]: binds
